Source: PMC4336329 (PLoS ONE, 2015)
In all, about 310,000 compounds went through this assay and about 14,000 (4.5%) showed an effect of 50% or more. Effects have a minus sign here. The list shows a part of the results. Where a SMILES comes first, the peptide text is derived from it. [ ]: non-standard residue; d: D form. The star is where a group is joined. ξ: configuration not given here. ξF = NC(Cc1ccccc1)C(=O)O; Cbz = O=C(OCc1ccccc1)*

target: human ether-à-go-go-related gene (hERG) potassium channel (human, UniProt Q12809); assay: primary screen, population patch clamp on CHO cells stably expressing hERG
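Further: peak tail current of the secondary pulse compared with the same well before compound.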

Chain of human ether-à-go-go-related gene (hERG) potassium channel (Q12809 whole entry, looked up): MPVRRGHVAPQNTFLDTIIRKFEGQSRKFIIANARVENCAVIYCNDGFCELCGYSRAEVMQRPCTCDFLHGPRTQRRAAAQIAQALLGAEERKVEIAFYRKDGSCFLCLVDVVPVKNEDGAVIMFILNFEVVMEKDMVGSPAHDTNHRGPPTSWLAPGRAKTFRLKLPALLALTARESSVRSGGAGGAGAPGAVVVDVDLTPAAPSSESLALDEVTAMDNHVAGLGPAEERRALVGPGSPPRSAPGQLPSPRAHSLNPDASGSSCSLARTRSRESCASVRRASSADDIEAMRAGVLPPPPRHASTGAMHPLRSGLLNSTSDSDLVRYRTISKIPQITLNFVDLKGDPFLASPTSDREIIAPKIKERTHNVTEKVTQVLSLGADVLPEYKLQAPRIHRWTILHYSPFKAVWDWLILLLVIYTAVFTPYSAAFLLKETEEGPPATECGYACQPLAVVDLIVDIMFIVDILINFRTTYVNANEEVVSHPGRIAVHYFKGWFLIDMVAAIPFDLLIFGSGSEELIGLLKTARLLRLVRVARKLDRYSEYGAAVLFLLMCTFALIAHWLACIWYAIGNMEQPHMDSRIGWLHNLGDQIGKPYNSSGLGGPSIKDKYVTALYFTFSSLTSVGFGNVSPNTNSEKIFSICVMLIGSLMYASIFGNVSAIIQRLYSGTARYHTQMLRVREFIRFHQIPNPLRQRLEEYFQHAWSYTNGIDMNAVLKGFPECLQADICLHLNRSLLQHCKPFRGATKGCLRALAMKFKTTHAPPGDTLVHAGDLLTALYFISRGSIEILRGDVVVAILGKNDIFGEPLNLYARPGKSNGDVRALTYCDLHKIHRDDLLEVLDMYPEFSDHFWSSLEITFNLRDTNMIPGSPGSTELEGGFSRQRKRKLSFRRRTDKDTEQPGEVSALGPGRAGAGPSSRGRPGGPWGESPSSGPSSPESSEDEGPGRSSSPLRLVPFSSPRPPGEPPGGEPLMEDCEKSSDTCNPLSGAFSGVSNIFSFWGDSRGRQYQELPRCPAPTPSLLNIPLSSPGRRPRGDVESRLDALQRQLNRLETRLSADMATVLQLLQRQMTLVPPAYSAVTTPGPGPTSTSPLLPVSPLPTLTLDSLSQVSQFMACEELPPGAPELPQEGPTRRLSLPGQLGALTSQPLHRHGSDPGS

SMILES	hERG current change (%, negative = inhibition) at 10uM [%]
O=C1C2CC=CCC2C(=O)N1c1ccc(Cc2ccncc2)cc1 (stereo not drawn)	-25.4
CCN(C(=O)COC(=O)c1ccc2ccccc2c1)c1c(N)n(Cc2ccccc2)c(=O)[nH]c1=O	14.1
CC(C)CN(C(=O)COc1ccc(C(C)(C)C)cc1)C1CCS(=O)(=O)C1 (stereo not drawn)	-22.5
COc1cc(/C=C(/NC(=O)c2ccccc2)C(=O)N2CCN(C)CC2)c([N+](=O)[O-])cc1OC	9.52
CCOC(=O)CNC(c1ccccc1)c1cc(Br)ccc1NC(=O)OCC (stereo not drawn)	6.02
COc1ccc(OC)c(NC(=O)CCC(=O)N(Cc2ccc(OC)c(OC)c2)c2nccs2)c1	16.2
COc1ccccc1NC(=O)NCC(=O)Nc1c(C)cccc1C	30.5
CC1(C)Cc2c(C#N)c(SCCO)nc(N3CCOCC3)c2CO1	1.82
CCOc1ccc2c(c1)nc(C)n2C	11.7
C[n+]1cn(Cc2cc(Cl)ccc2OC(F)F)c2ccccc21.[Br-]	2.96
COc1ccc(/C(C)=N/OC/C(O)=C(\C#N)c2nc3ccccc3[nH]2)cc1OC	-4.76
CCOC(=O)CCCSc1nc2sc(C)c(C)c2c(=O)[nH]1	17
CN1C(=O)C(C2c3ccccc3C(=O)N2Cc2ccccc2)C(=O)N(C)C1=O (stereo not drawn)	3.38
CCOc1ccccc1N1CCN(C(=O)c2cc(S(=O)(=O)N3CCCCC3)ccc2C)CC1	-18.1
COCCNC(=O)c1ccc(CS(=O)(=O)c2ccccc2C)o1	14.7
O=Cc1coc2c(ccc3ccccc32)c1=O	-8.67
COc1ccc(NC(=S)NCc2ccccc2)c(OC)c1	13.1
O=C(NCC(c1ccco1)N1CCCC1)c1ccccc1Sc1ccc(C(F)(F)F)cc1[N+](=O)[O-] (stereo not drawn)	-55.4
COc1cc(C(=O)N2CCNCC2)cc(OC)c1OC.O=C(O)C(F)(F)F	20.9
O=C(Cc1ccc([N+](=O)[O-])cc1)Nc1ccon1	-14.9
CCOC(=O)N1CCC2(CC1)C(C#N)=C(N)OC1=C2C(=O)CCC1	-0.515
O=C(CCCOc1ccc(Br)cc1)NCCc1ccc(OC(F)F)cc1	-67.7

SMILES	hERG current change (%, negative = inhibition) at 10uM [%]
O=C(c1cc2cc(Br)ccc2o1)N1CCCCC1	-27.8
COc1ccc(C)cc1NS(=O)(=O)c1ccc2c(c1)N(C)CCO2	-16.1
O=C(C1=C[C@@H](c2csc3ccccc23)C[C@@H](OCCCCO)O1)N1CCN(Cc2ccc3c(c2)OCO3)CC1	-11
CS(=O)(=O)N1CCN(c2ccccc2NC(=O)Cc2ccc(Cl)cc2)CC1	-38.4
CCC1SC(=NC(=O)c2ccc(Cl)c(Cl)c2)NC1=O (stereo not drawn)	14.6
CSC1=NCCN1C(=O)c1ccc2ccccc2c1	19.9
O=C(O)c1cc2c(cc1NC(=O)c1ccccc1C(F)(F)F)OCCCO2	-4.4
CCOC(=O)CNC(=O)C(Cc1ccccc1)NC(=O)OCc1ccccc1 (stereo not drawn) (Cbz-[ξF]-Gly-OEt)	-27.6
Cc1cc(C)c(NC(=O)CSc2nnc(CNC(=O)c3ccccc3F)o2)c(C)c1	-6.38
CC(=O)CC1(O)C(=O)Nc2ccccc21 (stereo not drawn)	1.02
COc1cc(/C=C2/C(=O)NN(c3cccc(Cl)c3)C2=O)cc(OC)c1O	-0.00632
O=C(CCN1C(=O)/C(=C/c2ccccc2)SC1=S)N1CCCCCC1	14.7
CC(=O)N(C)C1(c2nnnn2CCOC(=O)Nc2cccc3ccccc23)CCCC1	0.969
CCn1cc(CN2CCC(C(=O)Nc3cccc(-c4cccc(F)c4)c3)CC2)cn1	-66.4
N#C/C(=C\c1ccc(OC(=O)c2ccc(Br)s2)cc1)c1nc2ccccc2[nH]1	20
COc1cc(OC)c(C(=O)NC2CCCc3ccccc32)cc1OC (stereo not drawn)	-10.4
O=C(O)CCN1C(=O)c2ccc(NC(=O)C(c3ccccc3)c3ccccc3)cc2C1=O	15.4
CCCCOC(=O)CN1C(=O)c2ccc(C(=O)OCCCC)cc2C1=O	4.54
CC1CCN(C(=O)c2ccc3c(c2)OCO3)CC1	20.3
O=C1C2C3C=CC(c4ccccc4)(C2C(=O)N1c1cccc(Cl)c1)C1C(=O)N(c2cccc(Cl)c2)C(=O)C31 (stereo not drawn)	8.39
COc1cc(/C=N/NC(=O)/C(=C/c2ccccc2)CCO)ccc1O	-13.5
CCC(=NCc1ccccc1)c1c(C(F)(F)F)[nH]n(-c2nc3ccccc3s2)c1=O	12.6

SMILES	hERG current change (%, negative = inhibition) at 10uM [%]
Cc1nc(-c2ccccn2)nc(N(C)c2ccccc2)c1Cl	-18.8
O=C(Nc1ccc(F)cc1)c1ccc(NC(=O)C2CCCO2)cc1 (stereo not drawn)	18.4
CCOC(=O)CCC(=O)Nc1ccc(S(=O)(=O)N2CCCCC2)cc1	0.0788
CCOc1ccc(C(=O)Cc2cc(OC)c(OC)cc2[N+](=O)[O-])cc1	9.61
O=C(C1=C(O)C(=O)N(c2ncccn2)C1c1cccs1)c1ccco1 (stereo not drawn)	14.3
CCSc1ccc(C(=O)Nc2cccc(C)n2)cc1[N+](=O)[O-]	-38.4
CCOC(=O)Cc1nnc(NC(=O)COc2ccc(F)cc2)s1	5.76
COc1ccccc1C(=O)NC(=Nc1nc2ccccc2o1)NC(=O)c1ccccc1OC	14
O=C(CN1C(=O)COc2ccccc21)NNC(=O)Nc1ccccc1F	7.15
CCn1c(=O)c2ccccc2n2c(SCC(=O)N3CCCc4ccccc43)nnc12	8.86
CCN(CC)C(=O)COc1ccc(/C(C)=N/NC(=O)c2ccccc2O)cc1	1.9
Cc1nn(-c2ccccc2)c(C)c1/C=N/NC(=O)c1cc(-c2ccc(Br)s2)[nH]n1	-8.87
O=C(NCc1ccccc1Cl)C1CCC(=O)N(CCCN2CCCC2=O)C1 (stereo not drawn)	9.01
CCCCCCCCCOC(=O)C[n+]1csc(CCO)c1C.[Cl-]	-42
NC(=O)C1CCCN(C(=O)c2ccc3nc(Cc4cccc(Cl)c4)oc3c2)C1 (stereo not drawn)	-11.5
CCC1(C)Cc2ccccc2-c2nc(-c3ccccc3)oc(=O)c21 (stereo not drawn)	18.8
O=C(O)c1ccc(N2CCN(C(c3ccccc3)c3ccccc3)CC2)c([N+](=O)[O-])c1	35.7
Cc1nc(C)c(C(=O)NCc2ccc(Cl)cc2)o1	-7.69
CCOC(=O)c1ccc(NS(=O)(=O)c2ccc3c(c2)oc(=O)n3C)cc1	-5.32
CCC(C)Sc1ccc(-c2nc3cnccn3c2NC2CCCCC2)cc1.O=C(O)C(F)(F)F (stereo not drawn)	8.78
N/C(=N\OC(=O)CC1CCCCC1)c1ccc(Br)cc1	8.25
Cc1cccc(C(=O)NCCC(=O)N2CCc3ccccc3C2)c1	-13.5

SMILES	hERG current change (%, negative = inhibition) at 10uM [%]
CCN(Cc1cc2cccc(C)c2[nH]c1=O)C(=O)c1ccccc1OC	-7.54
Cc1sc(-n2c(C)ccc2C)c(C#N)c1C	-2.26
Cc1ccc2occ(CN3CC4CC(C3)c3cccc(=O)n3C4)c(=O)c2c1 (stereo not drawn)	-63.9
C=CCSc1nnc(NC(=O)C2=COCCO2)s1	9.51
Cc1ccc(C)c(NC(=S)NC(NC(=O)N(C)C)C(Cl)(Cl)Cl)c1 (stereo not drawn)	-9.76
COc1cccc(O)c1CN1CCCC(C(=O)c2ccccc2SC)C1 (stereo not drawn)	-44.1
COc1ccccc1NC(=O)NCCN1CCNC1=O	-0.253
NC(=O)c1ccsc1NC(=O)CCS(=O)(=O)c1ccccc1	1.27
NNC(=O)c1cncn1-c1ccc(F)cc1	23.7
Cc1ccc2c(c1)N(CC(=O)NCc1ccco1)C(=O)CO2	8.59
O=c1c2ccccc2nc(-c2ccc(Cl)cc2)n1C1CCS(=O)(=O)C1 (stereo not drawn)	-2.23
CC(C)CNC(=O)CSc1nc(-c2cccs2)cc(C(F)(F)F)n1	-13.7
C/C(=N/Nc1nc(C)cc(C)n1)c1ccc(Br)cc1	-14.9
CC(C1CC1)N(Cc1ccccc1)C(=O)NC(=O)c1cccc(F)c1 (stereo not drawn)	-7.69
O=S(=O)(NCc1ccc(Cl)cc1)c1cccc2cccnc12	-11.8
O=C(OCc1nnc(-c2ccccc2)o1)c1cccc(S(=O)(=O)N2CCOCC2)c1	-31
COc1cccc(-c2cc(C(=O)Nc3ccc4c(c3)OCO4)no2)c1	26.4
CO[C@@]1(NC(=O)Cc2cccs2)C(=O)N2C(C(=O)[O-])=C(COC(N)=O)CS[C@@H]21.[Na+]	14
COc1cccc(NC(=S)N(CCCN2CCN(C)CC2)Cc2ccco2)c1	-36.2
COc1ccc(Nc2nc(N)nc(CN(C)C3CCCCC3)n2)cc1	-57.5
Cc1ccc(C(=O)N/C(=C/c2cccnc2)C(=O)N2CCCCCC2)cc1	-10.2
